Test system: HEK293T/16 cells
Assay: SEAP-based surrogate killing assay of iCasp9 mutants
Assay type: cell-based, human
Conditions: in words, versus wild type

B1: T317S: chimeric modified Caspase-9 polypeptide (protein)
chain: VDGFGDVGALESLRGNADLAYILSMEPCGHCLIINNVNFCRESGLRTRTGSNIDCEKLRRRFSSLHFMVEVKGDLTAKKMVLALLELARQDHGALDCCVVVILSHGCQASHLQFPGAVYGTDGCPVSVEKIVNIFNGTSCPSLGGKPKLFFIQACGGEQKDHGFEVASTSPEDESPGSNPEPDASPFQEGLRTFDQLDAISSLPTPSDIFVSYSTFPGFVSWRDPKSGSWYVETLDDIFEQWAHSEDLQSLLLRVANAVSVKGIYKQMPGCFNFLRKKLFFKTSASRA
effect on basal / catalytic activity: can reduce basal activity without a large shift in the IC50

Source: US20220152100A1, “METHODS FOR CONTROLLED ACTIVATION OR ELIMINATION OF THERAPEUTIC CELLS” (Bellicum Pharmaceuticals, Inc., priority 2014, published 2022)
